# Laboratory results reported in the supplement of paper PMC12217912.
# Some of the results follow. Sequences were assembled here from the parent chain. Inactive controls read about 0.05.
# B1: TEV protease; numbered along this chain (parent)
# chain: MGESLFKGPRDYNPISSSICHLTNESDGHTTSLYGIGFGPFIITNKHLFRRNNGTLVVQSLHGVFKVKDTTTLQQHLVDGRDMIIIRMPKDFPPFPQKLKFREPQREERICLVTTNFQTKSMSSMVSDTSCTFPSGDGIFWKHWIQTKDGQCGSPLVSTRDGFIVGIHSASNFTNTNNYFTSVPKNFMELLTNQEAQQWVSGWRLNADSVLWGGHKVFMVKPEEPFQPVKEATQL
# Variants of: B1
# Assay: raw area under fraction-flipped curve 0-4 h after induction (AUC4h, not background-subtracted), DNA-recorder readout of cleavage of the substrate (dimensionless); higher = more cleavage of the substrate by the protease variant
# Settings: temperature: 34 °C; time window: 0-4 h after rhamnose induction
# Procedure: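 In vivo DNA recorder in E. coli TOP10(DE3) ΔrhaA at 34 °C. Each TEVp single-site mutant (parent TEVp 0) is paired with a single-site variant of the 7-mer TEVs (canonical ENLYFQ|S). The substrate sits between flexible linkers in a Bxb1-sfGFP-TEVs-SsrA fusion, so cleavage stabilises Bxb1 and speeds flipping of a recombination array, read by NGS. The value is the raw area under the fraction-flipped curve over 0-4 h after rhamnose induction (AUC4h), with ≥20 reads per time point. It is not background-subtracted; inactive controls average about 0.047.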
# 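Note: Bxb1 expression induced with 0.2% (w/v) L-rhamnose at OD600 near 0.5, cultures sampled hourly, flipped fraction per protease–substrate barcode pair counted by paired-end Illumina sequencing.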
Variant,area with substrate ENCYFQS,area with substrate ENDYFQS,area with substrate ENEYFQS,area with substrate ENHYFQS,area with substrate ENPYFQS,area with substrate ENRYFQS,area with substrate ENSYFQS,area with substrate ENVYFQS,area with substrate ENWYFQS,area with substrate ENFYFQS,area with substrate ENKYFQS,area with substrate ENNYFQS,area with substrate ENQYFQS,area with substrate ENTYFQS,area with substrate ENYYFQS,area with substrate ENAYFQS,area with substrate ENGYFQS,area with substrate ENMYFQS,area with substrate ENIYFQS
L22G,0.0517,0.0543,0.0455,0.0295,0.0398,0.0357,0.0512,0.0412,0.0448,–,–,–,–,–,–,–,–,–,–
S60T,0.0682,0.0641,0.0651,0.0621,0.0777,0.0635,0.059,0.08,0.0387,0.0546,0.0589,0.0578,0.0629,0.0597,0.0629,–,–,–,–
G8N,0.0455,0.0561,–,–,0.0603,0.0552,–,–,–,0.0632,–,–,–,–,–,–,–,–,–
K221E,0.0625,0.0594,0.0539,0.0537,0.0554,0.0559,0.0644,0.0753,–,0.0591,0.0545,0.058,0.133,0.0611,0.0211,0.0649,0.0608,–,–
F218R,–,0.0577,0.0675,–,0.0611,–,0.0671,0.0578,–,–,–,–,–,0.0425,0.0574,0.0533,–,–,–
V58P,0.0425,–,0.0361,–,–,0.0179,–,0.026,–,–,–,0.0394,–,–,–,–,0.0356,–,–
F101W,0.0545,0.0501,0.0706,–,–,–,0.0459,0.0823,0.0035,0.0617,0.0657,0.0525,0.0579,0.0677,0.0666,–,–,0.0892,–
F101N,0.0388,0.0499,0.0486,0.0399,0.0365,0.0493,0.0193,0.0552,–,0.0441,0.0411,–,0.047,0.0362,0.0243,–,–,0.0578,–
I86N,0.0486,0.0461,–,–,–,–,0.0483,0.0321,–,0.0504,–,–,0.0431,0.045,–,–,–,–,–
V217W,–,0.0577,–,–,–,0.0584,0.0572,0.0538,–,0.0668,0.0644,0.0672,0.0624,0.0571,0.0603,0.0551,0.0628,0.0614,0.0504
V64Y,0.0423,0.0565,0.0719,–,0.0588,–,0.0628,0.0837,–,0.0806,0.0556,–,0.0537,0.0349,–,–,0.0522,–,0.0963
L112V,0.0655,0.0606,0.0623,0.0646,–,0.0605,0.0672,–,–,0.065,–,–,0.0619,–,0.0662,–,0.0811,–,–
R102I,0.0535,0.0465,0.051,0.0582,0.0495,0.0513,0.0726,0.0489,–,–,–,–,0.0494,0.0498,–,–,0.0502,0.0597,0.0463
R102Y,0.102,0.0427,–,0.0143,–,–,0.0452,–,–,–,0.0443,–,0.0312,–,–,–,0.0636,–,–
G214C,–,–,0.0535,–,–,–,–,0.0803,–,0.0504,–,–,–,–,–,0.0579,0.0603,–,–
G214S,–,0.0656,0.0559,–,–,–,0.114,0.0572,–,0.0695,–,–,0.0573,–,–,0.0537,–,0.038,–

Variant,area with substrate ENCYFQS,area with substrate ENDYFQS,area with substrate ENEYFQS,area with substrate ENHYFQS,area with substrate ENPYFQS,area with substrate ENRYFQS,area with substrate ENSYFQS,area with substrate ENVYFQS,area with substrate ENWYFQS,area with substrate ENFYFQS,area with substrate ENKYFQS,area with substrate ENNYFQS,area with substrate ENQYFQS,area with substrate ENTYFQS,area with substrate ENYYFQS,area with substrate ENAYFQS,area with substrate ENGYFQS,area with substrate ENMYFQS,area with substrate ENIYFQS
V220Q,0.0756,0.0678,0.0615,0.0541,0.06,0.07,0.0649,0.0836,0.0413,0.0616,0.0447,0.0604,0.0587,–,0.0606,0.0926,0.0628,–,0.114
M219F,0.0749,0.0617,0.0558,–,–,0.11,0.0553,0.0877,–,0.0574,0.0572,–,0.0597,0.0754,–,0.0456,–,–,0.119
F95M,0.0949,–,–,–,–,–,–,–,–,–,0.061,–,0.0839,–,–,–,–,–,–
K216P,–,0.0571,0.0591,0.0433,–,–,–,0.0535,0.0587,–,–,–,–,0.0642,–,0.0555,0.0649,0.0919,–
K216A,0.0766,–,–,0.058,–,0.0237,–,–,–,–,0.0548,0.0574,0.0576,0.0643,0.0571,0.0559,0.0563,–,–
K216T,0.0707,0.0589,–,–,–,–,0.069,0.0862,–,0.0657,–,0.0619,–,–,–,0.0672,0.0629,0.0736,–
K216C,–,–,0.0685,0.0511,–,–,0.0594,–,–,0.0586,–,0.0643,–,–,–,0.06,0.0448,–,0.103
K216N,–,0.0611,0.0617,0.0823,0.0453,0.0817,0.0577,0.0849,0.078,0.0713,0.0628,–,0.0515,0.061,–,0.0581,–,0.0604,–
R51I,0.0702,0.0586,0.0622,0.0552,–,0.0572,–,0.0309,–,0.0601,–,0.0677,0.0558,–,0.0616,–,–,–,–
M88P,0.033,0.0558,–,–,0.0516,–,0.0602,–,–,–,–,–,–,0.0486,–,–,0.0337,0.0526,–
R106Q,0.0658,0.0674,0.0568,0.0558,0.0515,0.0522,0.0638,0.0787,0.0548,0.0698,–,0.0536,0.0591,0.0433,0.0583,–,0.0565,0.0566,0.0965
P104R,0.0662,0.0659,0.0641,0.0676,0.0607,–,0.048,–,–,0.059,–,0.0655,0.0557,–,–,–,0.0564,–,0.111
P104H,0.0589,0.0531,–,0.0416,0.0379,–,0.0617,0.0311,–,0.0563,–,–,0.0407,0.0513,–,–,0.0668,0.0614,–
P222W,0.0651,0.0336,0.0625,–,0.0521,–,–,0.0624,–,–,–,0.0566,0.054,0.0609,0.0768,0.0624,0.0683,–,–
F117L,0.0712,0.0588,0.0609,–,–,–,0.0944,0.0726,0.0605,0.086,–,–,0.0697,0.0605,–,–,–,–,0.106
F117V,0.0758,0.0519,0.0544,0.06,0.0414,–,0.0587,0.0665,–,0.0563,0.0565,–,0.0526,0.0698,–,–,0.0632,–,0.0694
